Reference: PubChem BioAssay AID1460 (National Center for Advancing Translational Sciences (NCATS), 2008)
Several values for one entry are separate records, joined by “and”; a condition that tells them apart may be missing. Equal entries are not always repeated. Out of some 270,000 compounds screened, about 5,800 (2.1%) were called active. Inconclusive means that the source gave no clear call. Such entries were picked first, then a sample of the others. Calls follow the shape of the dose curve; as a rule, active = well fitted inhibition curve with a large enough effect; inconclusive = small, poorly fitted or top-dose-only effect; inactive = flat fitted curve, though single readings scatter. A potency beside an inconclusive call is a rough fit, not a confirmed value.

Target: Microtubule-associated protein tau (Homo sapiens) (UniProt P10636)
Chain of UniProt P10636 (P10636 whole entry, looked up): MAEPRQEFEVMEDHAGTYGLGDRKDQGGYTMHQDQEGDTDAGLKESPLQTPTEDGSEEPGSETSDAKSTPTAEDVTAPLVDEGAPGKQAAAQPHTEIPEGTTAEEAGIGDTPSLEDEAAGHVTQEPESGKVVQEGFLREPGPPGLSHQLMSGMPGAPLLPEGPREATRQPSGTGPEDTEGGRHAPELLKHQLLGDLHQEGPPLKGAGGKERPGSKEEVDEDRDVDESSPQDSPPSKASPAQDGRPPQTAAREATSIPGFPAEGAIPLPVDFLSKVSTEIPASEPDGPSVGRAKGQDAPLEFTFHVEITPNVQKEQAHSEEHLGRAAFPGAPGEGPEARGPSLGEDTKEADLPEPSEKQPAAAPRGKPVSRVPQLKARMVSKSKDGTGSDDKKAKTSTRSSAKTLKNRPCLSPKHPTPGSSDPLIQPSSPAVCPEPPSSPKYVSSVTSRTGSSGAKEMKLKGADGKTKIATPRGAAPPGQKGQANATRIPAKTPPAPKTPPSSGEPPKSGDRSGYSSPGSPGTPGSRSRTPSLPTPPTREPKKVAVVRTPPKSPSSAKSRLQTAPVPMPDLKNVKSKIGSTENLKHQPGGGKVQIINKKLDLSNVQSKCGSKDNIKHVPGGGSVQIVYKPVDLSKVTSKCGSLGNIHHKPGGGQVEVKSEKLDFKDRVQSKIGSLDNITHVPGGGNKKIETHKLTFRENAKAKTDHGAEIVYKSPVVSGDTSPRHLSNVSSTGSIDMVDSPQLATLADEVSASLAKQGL
Assay: qHTS for Inhibitors of Tau Fibril Formation, Thioflavin T Binding; also: nearly all actives have a fitted effect of over 55% in size
Conditions: recombinant tau K18 P301L, heparin-induced fibrillization, ThT fluorescence; series mostly up to 57.4 µM
Outline: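 Fibril formation assay: tau K18 P301L at 15 uM with trace Alexa 594 label, heparin inducer 20 uM, pH 7 sodium acetate buffer, 37 C for 6 hr; endpoint ThT signal.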
Potency is read from the fitted curve at half-maximal effect; tags tell the direction and shape of the fitted curve.

Row | Compound | Potency
1 | Cc1ccc(C(C)C)c(OCC(=O)Nc2ccc(Cl)cn2)c1 | inactive
2 | N[C@@H](Cn1cc(F)c(=O)[nH]c1=O)C(=O)O | inactive
3 | Cc1ccc(-n2c(=O)c3c(c4cc(C)ccc4n3C)n(CC(=O)NCc3ccccc3)c2=O)cc1 | inactive
4 | COc1ccc(-c2cc(C(=O)Nc3cc(C)on3)no2)cc1 | inconclusive: 0.355 µM [inhibitor, full curve, poor fit]
5 | CC1=C(C#N)C(=O)NC(=O)/C1=C\c1ccc(-c2ccc(C)cc2[N+](=O)[O-])o1 | active: 15.8 µM
6 | O=C(CCOc1ccccc1)N(Cc1cccnc1)c1nc2c(F)cccc2s1 | inactive
7 | CCCCn1c(NCc2ccc(N(C)C)cc2)nc2ccccc21 | inactive and inconclusive: 44.7 µM [inhibitor, single point]
8 | COC(=O)c1ccc2c(c1)C(C)(C)C(/C=C/c1ccccc1O)=[N+]2C | active: 10 µM
9 | Cc1cccn2c(=O)c(C(=O)NCCc3ccc(S(N)(=O)=O)cc3)c(O)nc12 | inconclusive: 39.8 µM [activator, partial curve]
10 | CCc1cc(-c2n[nH]c(=S)n2-c2ccccc2C)cs1 | inactive
11 | Cc1ccccc1CSc1cn(CC(=O)N2CCCCCC2)c2ccccc12 | inconclusive: 12.6 µM [inhibitor, partial curve]
12 | CC1Oc2ccccc2OC1(O)c1ccccn1 (stereo not given) | inactive
13 | CC(/C=C1\SC(=S)N(NS(=O)(=O)c2ccccc2)C1=O)=C\c1ccccc1 | active: 10 µM
14 | CC(CCc1ccc(O)cc1)NCCc1ccc(O)c(O)c1 (stereo not given) | inconclusive: 3.98 µM [inhibitor, full curve]
15 | COc1ccc(C2NC(=S)NC3=C2CCc2cc(OC)ccc23)cc1 (stereo not given) | inconclusive: 10 µM [inhibitor, partial curve]
16 | Cc1cccc(N2CCN(C(=S)NCc3ccco3)CC2)c1C | inconclusive: 15.8 µM [inhibitor, single point]
17 | CC(=O)n1cc([C@H]2C=C(C(=O)N3CCOCC3)O[C@@H](OCc3ccc(CO)cc3)C2)c2ccccc21 | inconclusive: 31.6 µM [inhibitor, single point]
18 | COc1ccc(C2/C=C\CN(CC(C)(C)C)CC(=O)N2Cc2ccc(F)cc2)cc1 (stereo not given) | inconclusive: 1 µM [inhibitor, partial curve]
19 | O=C(Cc1ccc(-n2c(=S)[nH]c3ccccc3c2=O)cc1)N1CCN(c2ccccc2)CC1 | inconclusive: 6.31 µM [inhibitor, partial curve]
20 | O=C(NCc1ccccc1F)C1CCN(c2nn3cc(-c4ccc(F)cc4)nc3s2)CC1 | inconclusive: 0.158 µM [inhibitor, full curve, poor fit]
21 | c1ccc(-c2csc(NNC3=NCCCCC3)n2)cc1 | active: 25.1 µM
22 | CC(C)(C)c1ccc(C(=O)C2CCCN(C(=O)C3CCOCC3)C2)cc1 (stereo not given) | inconclusive: 11.2 µM [inhibitor, partial curve]
23 | COc1ccccc1Nc1nn2c(=O)c3ccc(C(=O)NCCC4=CCCCC4)cc3nc2s1 | inconclusive: 0.501 µM [inhibitor, full curve, poor fit]
24 | COc1cccc(-c2ncc3ccccn23)c1 | inconclusive: 20 µM [inhibitor, partial curve]

Row | Compound | Potency
25 | CN(C)c1ccc(/C=N/NC(=O)c2cnc3ccccc3c2)cc1 | active: 0.631 µM
26 | Cc1ccccc1OCc1nc(-c2ccc(NC(=O)c3cccs3)cc2)no1 | inactive
27 | COc1ccc(/C(C)=N/NS(=O)(=O)c2cc(C)ccc2C)c(OC)c1 | inactive
28 | Fc1ccc(OCc2nc3ccccc3s2)cc1 | inactive
29 | O=C(OC1Cc2c(O)cc(O)cc2OC1c1cc(O)c(O)c(O)c1-c1c(C2Oc3cc(O)cc(O)c3CC2OC(=O)c2cc(O)c(O)c(O)c2)cc(O)c(O)c1O)c1cc(O)c(O)c(O)c1 (stereo not given) | active: 25.1 µM
30 | COc1ccc(-c2n[nH]c(=S)n2-c2ccc(C)cc2)cc1 | inactive
31 | COc1cc2c(cc1OC)C1(CCCC1)CNC2c1ccc([N+](=O)[O-])cc1 (stereo not given) | inactive
32 | CC[n+]1c(C)sc2c(C)cc(C)cc21 | inconclusive: 20 µM [inhibitor, partial curve]
33 | Cc1ccccc1-c1cc2nc(-c3ccc([N+](=O)[O-])cc3)cc(=O)n2[nH]1 | inconclusive: 14.1 µM [inhibitor, partial curve]
34 | NC(N)=Nc1nc(-c2ccccc2)c2ccccc2n1 | inconclusive: 31.6 µM [inhibitor, single point]
35 | O=c1cc(-c2ccccc2)oc2ccc(O)cc12 | inconclusive: 12.6 µM [inhibitor, partial curve]
36 | COc1ccc(-n2c(O)c(C=Nc3ccccc3)c3ccccc3c2=O)cc1 | inactive
37 | CCCCN1C(=O)c2ccc(C(=O)NCCN3C(=O)S/C(=C\c4cccnc4)C3=O)cc2C1=O | inconclusive: 4.47 µM [inhibitor, full curve]
38 | COc1ccc(Nc2ncnc3c2cnn3-c2ccc(C)cc2)cc1Cl | inconclusive: 8.91 µM [activator, partial curve]
39 | O=C(CC1(O)C(=O)N(C/C=C/c2ccccc2)c2ccccc21)c1ccccn1 (stereo not given) | inconclusive: 20 µM [inhibitor, partial curve]
40 | COc1ccc(OCC(=O)NNc2c3ccccc3nc3ccccc23)cc1 | active: 6.31 µM
41 | O=C(Cc1cn2ccsc2n1)Nc1nc2c(s1)CN(Cc1ccccc1)CC2 | inconclusive: 35.5 µM [inhibitor, single point]
42 | CCOC(=O)c1ccc(CN(Cc2ccccc2C)S(=O)(=O)c2ccc(F)c(C)c2)cc1 | inactive
43 | CCOC(=O)N1CCC(NC(=O)c2cc3cc4cc(OC)ccc4nc3o2)CC1 | inconclusive: 2.51 µM [inhibitor, full curve]
44 | COc1ccc(C)cc1NC(=O)C(Cc1ccccc1)NS(=O)(=O)c1cccs1 (stereo not given) | inactive
45 | Cc1cccc(N2CCN(C(=O)CCCOc3ccccc3)CC2)c1C | inconclusive: 14.1 µM [inhibitor, partial curve, poor fit]
46 | N#Cc1cc2c(nc1SCc1cccnc1)CCCCC2 | inactive
47 | OC(CNCC(c1ccc(Cl)cc1Cl)c1c[nH]c2ccccc12)c1ccccc1 (stereo not given) | inconclusive: 39.8 µM [inhibitor, single point]
48 | Cc1cccc2c(C(=O)N3CCN(C(=O)c4ccco4)CC3)cc(-c3cccc(Br)c3)nc12 | inconclusive: 39.8 µM [inhibitor, single point]

Row | Compound | Potency
49 | CC(/C=N/NC(=O)c1cc(C(C)C)[nH]n1)=C\c1ccccc1 | inconclusive: 15.8 µM [inhibitor, partial curve, poor fit]
50 | Cc1ccc(/C=C/C(=O)Nc2cc(S(=O)(=O)N3CCCCCC3)ccc2OCC(F)(F)F)o1 | inactive
51 | Cn1c(/C(C#N)=C/c2ccc(-c3ccc(S(N)(=O)=O)cc3)o2)nc2ccccc21 | inconclusive: 0.251 µM [inhibitor, full curve]
52 | Cc1cccc(N(C(=O)Nc2ccc(Cl)cc2)C2=NCC(C)S2)n1 (stereo not given) | inactive
53 | Cc1ccc(N/C=C/C(=O)C(C)(C)C)c(O)c1 | inactive
54 | CC(C)CN(C(=O)c1nn(C)c(=O)c2ccccc12)c1nc2ccccc2s1 | inconclusive: 35.5 µM [inhibitor, partial curve]
55 | COc1ccccc1C(CC(=O)Nc1ccccc1C)c1ccc(OC(C)C)cc1 (stereo not given) | inconclusive: 1.41 µM [inhibitor, partial curve]
56 | CCCn1nc(NS(=O)(=O)c2ccccc2)c2cc3ccccc3nc21 | inconclusive: 17.8 µM [inhibitor, single point]
57 | Cc1nc2ccccc2oc1=O | inconclusive: 4.47 µM [inhibitor, partial curve]
58 | CCC1=NN(C(=O)C(=O)Nc2ccc(Br)cc2)C(O)(C(F)(F)F)C1 (stereo not given) | inconclusive: 20 µM [inhibitor, partial curve]
59 | COCCNC(=O)CSC1=N/C(=C/c2ccc(Cl)c(Cl)c2)C(=O)N1c1ccccc1F | inconclusive: 28.2 µM [inhibitor, single point]
60 | C/C(=N\OC(=O)c1cccc(Cl)c1)c1sc(C)nc1C | inconclusive: 3.55 µM [inhibitor, full curve]
61 | CC(C)c1cc(C(=O)Nc2sc3c(c2C#N)CCC3)no1 | inactive
62 | COc1ccc(NC(=S)SC)cc1OC | inconclusive: 25.1 µM [inhibitor, partial curve, poor fit]
63 | Cc1cc([N+](=O)[O-])ccc1-c1ccc(/C=N/NC(=O)Cc2ccccc2)o1 | inconclusive: 3.16 µM [inhibitor, full curve]
64 | CC1(C)CC(=O)C(C(C#Cc2ccccc2)C2=C(O)CC(C)(C)CC2=O)=C(O)C1 | inconclusive: 0.631 µM [inhibitor, full curve]
65 | Cc1nn2c(C)c(C(=O)Nc3ccccc3)cnc2c1-c1ccccc1 | inconclusive: 39.8 µM [inhibitor, single point]
66 | Cc1cc(C)cc(N(CCC#N)C(=O)CSC2=Nc3ccccc3C3CC=NN23)c1 (stereo not given) | inconclusive: 12.6 µM [inhibitor, partial curve]
67 | Cn1nc(C(F)(F)F)c2cc(NC(=O)OCc3ccc(F)cc3)sc21 | inconclusive: 15.8 µM [inhibitor, partial curve]
68 | COc1ccc2oc(=O)c(C(=O)Oc3ccc(NC(C)=O)cc3)cc2c1 | inconclusive: 17.8 µM [inhibitor, partial curve]
69 | COc1cccc(-n2c(SCC(=O)Nc3cc(C)on3)nc3c([nH]c4ccccc43)c2=O)c1 | inactive
70 | C=CCn1c(=O)c(C(=O)NCCc2ccccc2)c(O)c2ccccc21 | inconclusive: 14.1 µM [inhibitor, partial curve]
